Results taken from the supplement of paper PMC8728848.
Some of the results follow.

Experiments:
Experiment in all cases: glycan array binding signal (z-score within array); higher = stronger binding
Settings in all cases: glycan notation: IUPAC condensed, linker removed
[1] = molecular target: GlcNAc(b1-2)[GlcNAc(b1-4)]Man(a1-3)[GlcNAc(b1-4)][GlcNAc(b1-2)[GlcNAc(b1-6)]Man(a1-6)]Man(b1-4)GlcNAc(b1-4)GlcNAc
Procedure, shortened: (§1)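 The binding signal is a Z-score computed within each array. Data were drawn from 3228 arrays in the Consortium for Functional Glycomics database, restricted to those with a known protein sequence. Scores were averaged over arrays of the same protein sequence at different concentrations or buffers, and over linkers, and negative values can be taken as non-binding.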

[2] = molecular target: GlcNAc(b1-2)[GlcNAc(b1-4)]Man(a1-3)[GlcNAc(b1-4)][GlcNAc(b1-2)[GlcNAc(b1-6)]Man(a1-6)]Man(b1-4)GlcNAc(b1-4)[Fuc(a1-6)]GlcNAc
Procedure, shortened: as §1

[3] = molecular target: GlcNAc(b1-2)[GlcNAc(b1-6)]Man(a1-6)[GlcNAc(b1-2)Man(a1-3)]Man(b1-4)GlcNAc(b1-4)GlcNAc
Procedure, shortened: as §1

[4] = molecular target: GlcNAc(b1-2)[GlcNAc(b1-6)]Man(a1-6)[GlcNAc(b1-2)Man(a1-3)]Man(b1-4)GlcNAc(b1-4)[Fuc(a1-6)]GlcNAc
Procedure, shortened: as §1

[5] = molecular target: GlcNAc(b1-2)[GlcNAc(b1-6)]Man(a1-6)[GlcNAc(b1-4)][GlcNAc(b1-2)Man(a1-3)]Man(b1-4)GlcNAc(b1-4)GlcNAc
Procedure, shortened: as §1

[6] = molecular target: GlcNAc(b1-3)Fuc
Procedure, shortened: as §1

[7] = molecular target: GlcNAc(b1-3)Gal
Procedure, shortened: as §1

[8] = molecular target: GlcNAc(b1-3)Gal(b1-3)GalNAc
Procedure, shortened: as §1

[9] = molecular target: GlcNAc(b1-3)Gal(b1-4)Glc
Procedure, shortened: as §1

[10] = molecular target: GlcNAc(b1-3)Gal(b1-4)GlcNAc
Procedure, shortened: as §1

[11] = molecular target: GlcNAc(b1-3)Gal(b1-4)GlcNAc(b1-2)Man(a1-3)[GlcNAc(b1-3)Gal(b1-4)GlcNAc(b1-2)Man(a1-6)]Man(b1-4)GlcNAc(b1-4)GlcNAc
Procedure, shortened: as §1

[12] = molecular target: GlcNAc(b1-3)Gal(b1-4)GlcNAc(b1-2)Man(a1-3)[GlcNAc(b1-3)Gal(b1-4)GlcNAc(b1-2)Man(a1-6)]Man(b1-4)GlcNAc(b1-4)[Fuc(a1-6)]GlcNAc
Procedure, shortened: as §1

[13] = molecular target: GlcNAc(b1-3)Gal(b1-4)GlcNAc(b1-2)[GlcNAc(b1-3)Gal(b1-4)GlcNAc(b1-6)]Man(a1-6)[GlcNAc(b1-3)Gal(b1-4)GlcNAc(b1-2)Man(a1-3)]Man(b1-4)GlcNAc(b1-4)GlcNAc
Procedure, shortened: as §1

[14] = molecular target: GlcNAc(b1-3)Gal(b1-4)GlcNAc(b1-3)Gal(b1-4)GlcNAc
Procedure, shortened: as §1

[15] = molecular target: GlcNAc(b1-3)Gal(b1-4)GlcNAc(b1-3)Gal(b1-4)GlcNAc(b1-2)Man(a1-3)[GlcNAc(b1-3)Gal(b1-4)GlcNAc(b1-3)Gal(b1-4)GlcNAc(b1-2)Man(a1-6)]Man(b1-4)GlcNAc(b1-4)GlcNAc
Procedure, shortened: as §1

[16] = molecular target: GlcNAc(b1-3)Gal(b1-4)GlcNAc(b1-3)Gal(b1-4)GlcNAc(b1-2)Man(a1-3)[GlcNAc(b1-3)Gal(b1-4)GlcNAc(b1-3)Gal(b1-4)GlcNAc(b1-2)Man(a1-6)]Man(b1-4)GlcNAc(b1-4)[Fuc(a1-6)]GlcNAc
Procedure, shortened: as §1

[17] = molecular target: GlcNAc(b1-3)Gal(b1-4)GlcNAc(b1-3)Gal(b1-4)GlcNAc(b1-2)[GlcNAc(b1-3)Gal(b1-4)GlcNAc(b1-3)Gal(b1-4)GlcNAc(b1-6)]Man(a1-6)[GlcNAc(b1-3)Gal(b1-4)GlcNAc(b1-3)Gal(b1-4)GlcNAc(b1-2)Man(a1-3)]Man(b1-4)GlcNAc(b1-4)[Fuc(a1-6)]GlcNAc
Procedure, shortened: as §1

[18] = molecular target: GlcNAc(b1-3)Gal(b1-4)GlcNAc(b1-3)Gal(b1-4)GlcNAc(b1-3)Gal(b1-4)GlcNAc(b1-2)Man(a1-3)[GlcNAc(b1-3)Gal(b1-4)GlcNAc(b1-3)Gal(b1-4)GlcNAc(b1-3)Gal(b1-4)GlcNAc(b1-2)Man(a1-6)]Man(b1-4)GlcNAc(b1-4)GlcNAc
Procedure, shortened: as §1

[19] = molecular target: GlcNAc(b1-3)Gal(b1-4)GlcNAc(b1-3)Gal(b1-4)GlcNAc(b1-3)Gal(b1-4)GlcNAc(b1-2)Man(a1-3)[GlcNAc(b1-3)Gal(b1-4)GlcNAc(b1-3)Gal(b1-4)GlcNAc(b1-3)Gal(b1-4)GlcNAc(b1-2)Man(a1-6)]Man(b1-4)GlcNAc(b1-4)[Fuc(a1-6)]GlcNAc
Procedure, shortened: as §1

[20] = molecular target: GlcNAc(b1-3)Gal(b1-4)GlcNAc(b1-3)Gal(b1-4)GlcNAc(b1-3)Gal(b1-4)GlcNAc(b1-2)[GlcNAc(b1-3)Gal(b1-4)GlcNAc(b1-3)Gal(b1-4)GlcNAc(b1-3)Gal(b1-4)GlcNAc(b1-6)]Man(a1-6)[GlcNAc(b1-3)Gal(b1-4)GlcNAc(b1-3)Gal(b1-4)GlcNAc(b1-3)Gal(b1-4)GlcNAc(b1-2)Man(a1-3)]Man(b1-4)GlcNAc(b1-4)[Fuc(a1-6)]GlcNAc
Procedure, shortened: as §1

[21] = molecular target: GlcNAc(b1-3)Gal(b1-4)GlcNAc(b1-3)Gal(b1-4)GlcNAc(b1-3)Gal(b1-4)GlcNAc(b1-3)Gal(b1-4)GlcNAc(b1-2)Man(a1-3)[GlcNAc(b1-3)Gal(b1-4)GlcNAc(b1-3)Gal(b1-4)GlcNAc(b1-3)Gal(b1-4)GlcNAc(b1-3)Gal(b1-4)GlcNAc(b1-2)Man(a1-6)]Man(b1-4)GlcNAc(b1-4)GlcNAc
Procedure, shortened: as §1

[22] = molecular target: GlcNAc(b1-3)Gal(b1-4)GlcNAc(b1-3)Gal(b1-4)GlcNAc(b1-3)Gal(b1-4)GlcNAc(b1-3)Gal(b1-4)GlcNAc(b1-2)Man(a1-3)[GlcNAc(b1-3)Gal(b1-4)GlcNAc(b1-3)Gal(b1-4)GlcNAc(b1-3)Gal(b1-4)GlcNAc(b1-3)Gal(b1-4)GlcNAc(b1-2)Man(a1-6)]Man(b1-4)GlcNAc(b1-4)[Fuc(a1-6)]GlcNAc
Procedure, shortened: as §1

[23] = molecular target: GlcNAc(b1-3)Gal(b1-4)GlcNAc(b1-3)Gal(b1-4)GlcNAc(b1-3)Gal(b1-4)GlcNAc(b1-3)Gal(b1-4)GlcNAc(b1-2)[GlcNAc(b1-3)Gal(b1-4)GlcNAc(b1-3)Gal(b1-4)GlcNAc(b1-3)Gal(b1-4)GlcNAc(b1-3)Gal(b1-4)GlcNAc(b1-6)]Man(a1-6)[GlcNAc(b1-3)Gal(b1-4)GlcNAc(b1-3)Gal(b1-4)GlcNAc(b1-3)Gal(b1-4)GlcNAc(b1-3)Gal(b1-4)GlcNAc(b1-2)Man(a1-3)]Man(b1-4)GlcNAc(b1-4)[Fuc(a1-6)]GlcNAc
Procedure, shortened: as §1

[24] = molecular target: GlcNAc(b1-3)Gal(b1-4)GlcNAc(b1-3)Gal(b1-4)GlcNAc(b1-3)GalNAc
Procedure, shortened: as §1

[25] = molecular target: GlcNAc(b1-3)Gal(b1-4)GlcNAc(b1-3)GalNAc
Procedure, shortened: as §1

[26] = molecular target: GlcNAc(b1-3)Gal(b1-4)GlcNAc(b1-3)[GlcNAc(b1-3)Gal(b1-4)GlcNAc(b1-3)]GalNAc
Procedure, shortened: as §1

[27] = molecular target: GlcNAc(b1-3)Gal(b1-4)GlcNAc(b1-6)[Gal(b1-3)]GalNAc
Procedure, shortened: as §1

[28] = molecular target: GlcNAc(b1-3)Gal(b1-4)GlcNAc(b1-6)[GlcNAc(b1-3)Gal(b1-3)]GalNAc
Procedure, shortened: as §1

[29] = molecular target: GlcNAc(b1-3)Gal(b1-4)GlcNAc(b1-6)[GlcNAc(b1-3)]Gal(b1-4)GlcNAc
Procedure, shortened: as §1

[30] = molecular target: GlcNAc(b1-3)GalNAc
Procedure, shortened: as §1

[31] = molecular target: GlcNAc(b1-3)Man
Procedure, shortened: as §1

[32] = molecular target: GlcNAc(b1-3)[GlcNAc(b1-4)][GlcNAc(b1-6)]GlcNAc
Procedure, shortened: as §1

[33] = molecular target: GlcNAc(b1-3)[GlcNAc(b1-6)]Gal(b1-4)GlcNAc
Procedure, shortened: as §1

[34] = molecular target: GlcNAc(b1-3)[GlcNAc(b1-6)]GalNAc
Procedure, shortened: as §1

[35] = molecular target: GlcNAc(b1-4)Gal(b1-4)GlcNAc
Procedure, shortened: as §1

[36] = molecular target: GlcNAc(b1-4)GlcNAc
Procedure, shortened: as §1

[37] = molecular target: GlcNAc(b1-4)GlcNAc(b1-4)GlcNAc
Procedure, shortened: as §1

[38] = molecular target: GlcNAc(b1-4)GlcNAc(b1-4)GlcNAc(b1-4)GlcNAc(b1-4)GlcNAc
Procedure, shortened: as §1

B1: PV12658A-bvu-496-32-496 (Bacteroides vulgatus) (protein)
chain: DLDGAITTPAAVELALNGIYYSLPGNGFNVIFPTVSGSFKAGTMWRQEIVSAGNAVYYSERMLPTLSFSDATEWDADYAVIKNANFLETACNRMSDGEFSGNRRAEVLGEIAYLRALAYFNILVRYCEFWDMNSEYGVVMRNEAPSVSNALKARSSVADSYQYILDQLEIAIEKAPDWKKLSQASKEAAKALKARVLLYAGKYTEAVAAVNDAIDTNSPLPEANYGDVFDKFSTTKEILFARVFDQKDATNTSTRQQCYGNSPTKKQGYWGPTNEYVELVGDDPRADAIFSKVDSLMDSRSSAVAYNLKSVKKLLNDANDMPVIFSRVSELYLIKAEALYRSGASISEAYAPIRKLRERAGAEIILPANNEELETAIFNEWMLELSFENWHEWFAMIRFAGYTEKPDFTRLLALNKTLREALEKEYEKSEAQGDNYYQRIIDRRIDAIPSSEISSNLECKQNPGY
- glycan array binding signal (z-score) [1]: -0.432
- glycan array binding signal (z-score) [2]: -0.461
- glycan array binding signal (z-score) [3]: -0.355
- glycan array binding signal (z-score) [4]: -0.193
- glycan array binding signal (z-score) [5]: -0.218
- glycan array binding signal (z-score) [6]: -0.289
- glycan array binding signal (z-score) [7]: -0.467
- glycan array binding signal (z-score) [8]: -0.315
- glycan array binding signal (z-score) [9]: -0.278
- glycan array binding signal (z-score) [10]: -0.437
- glycan array binding signal (z-score) [11]: 0.145
- glycan array binding signal (z-score) [12]: -0.254
- glycan array binding signal (z-score) [13]: 0.404
- glycan array binding signal (z-score) [14]: -0.488
- glycan array binding signal (z-score) [15]: 0.43
- glycan array binding signal (z-score) [16]: 0.127
- glycan array binding signal (z-score) [17]: -0.032
- glycan array binding signal (z-score) [18]: -0.287
- glycan array binding signal (z-score) [19]: 0.056
- glycan array binding signal (z-score) [20]: -0.046
- glycan array binding signal (z-score) [21]: 0.265
- glycan array binding signal (z-score) [22]: 0.003
- glycan array binding signal (z-score) [23]: 0.461
- glycan array binding signal (z-score) [24]: 0.161
- glycan array binding signal (z-score) [25]: -0.397
- glycan array binding signal (z-score) [26]: -0.283
- glycan array binding signal (z-score) [27]: 0.089
- glycan array binding signal (z-score) [28]: -0.117
- glycan array binding signal (z-score) [29]: -0.545
- glycan array binding signal (z-score) [30]: -0.285
- glycan array binding signal (z-score) [31]: -0.414
- glycan array binding signal (z-score) [32]: -0.459
- glycan array binding signal (z-score) [33]: -0.286
- glycan array binding signal (z-score) [34]: -0.243
- glycan array binding signal (z-score) [35]: -0.358
- glycan array binding signal (z-score) [36]: -0.141
- glycan array binding signal (z-score) [37]: -0.297
- glycan array binding signal (z-score) [38]: -0.447
